Results from the supplement of paper PMC3334620.
Over roughly 33,000 sequences, “E-score (-0.5 to 0.5)” has its median near -0.032; the highest 2% begin near 0.36. Some of the results follow.

target: T1, Sko1 (UniProt Q02100); assay: PBM E-score (8-mer binding enrichment) (E-score (-0.5 to 0.5)); higher = stronger / more preferred TF binding; most listed sequences are background and not binding sites; details: protein concentration: 200 nM; construct: GST-full length
T1 sequence: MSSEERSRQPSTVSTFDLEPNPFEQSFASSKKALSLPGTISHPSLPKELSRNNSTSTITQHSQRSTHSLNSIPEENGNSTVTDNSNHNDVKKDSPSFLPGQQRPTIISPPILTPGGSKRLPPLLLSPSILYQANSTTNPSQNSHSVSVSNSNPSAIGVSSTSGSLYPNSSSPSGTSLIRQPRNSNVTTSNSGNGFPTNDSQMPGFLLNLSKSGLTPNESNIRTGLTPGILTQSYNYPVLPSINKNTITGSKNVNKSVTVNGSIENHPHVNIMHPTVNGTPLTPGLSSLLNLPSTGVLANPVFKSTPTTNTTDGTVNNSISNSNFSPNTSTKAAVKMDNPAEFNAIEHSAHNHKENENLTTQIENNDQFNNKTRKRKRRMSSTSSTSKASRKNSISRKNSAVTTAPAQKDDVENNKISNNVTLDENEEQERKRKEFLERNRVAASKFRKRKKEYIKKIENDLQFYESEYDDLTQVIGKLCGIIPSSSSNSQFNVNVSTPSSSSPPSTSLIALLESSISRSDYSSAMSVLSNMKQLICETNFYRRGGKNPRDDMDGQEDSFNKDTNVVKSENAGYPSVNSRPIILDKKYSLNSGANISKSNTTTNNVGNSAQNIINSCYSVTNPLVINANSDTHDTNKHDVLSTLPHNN
Method: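 Universal 'all 10-mer' protein binding microarrays (Agilent AMADID 015681) probed with GST-tagged S. cerevisiae TFs (full-length or DBD) made by in vitro transcription/translation (PURExpress), about 100-200 nM. Bound TF was detected with fluorescent anti-GST. Each ungapped 8-mer (which stands for itself and its reverse complement) is scored by the PBM enrichment score (E-score), a modified Wilcoxon-Mann-Whitney statistic from -0.5 to +0.5, computed with the Universal PBM Analysis Suite. Scale: above 0.35 generally sequence-specific binding.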

Row | Sequence | PBM E-score
1 | CGATTACG | 0.448
2 | CGTATTCA | 0.332
3 | ATATCGAC | 0.158
4 | ATTTGAAG | -0.0311
5 | GACCTACC | -0.281
6 | TATAGAGA | 0.032
7 | CGCGACTC | -0.0357
8 | CGTGACAC | 0.195
9 | AGCAGATG | -0.139
10 | CCATTTCA | -0.154
11 | CTCATGTA | 0.17
12 | GCAACGAC | 0.0302
13 | AATCGAAA | 0.131
14 | AAAGCGGG | -0.187
15 | CTGGTATA | -0.226
16 | TATTGCGA | 0.193
17 | ACCGAGTA | -0.101
18 | TCCCGCCA | -0.331
19 | GGCTTATA | -0.0538
20 | CTATTTAC | 0.164
21 | ATTGGGCG | -0.127
22 | AATCACGC | 0.205

Row | Sequence | PBM E-score
23 | GAGCTGAA | -0.145
24 | ATATATTG | 0.0698
25 | CAATCCGC | -0.118
26 | CGAGAGAC | -0.288
27 | CGTCTCAC | 0.0535
28 | AATGCAAG | 0.137
29 | CGTAGGTC | 0.284
30 | GCGAGTGA | 0.00389
31 | AACATCAA | 0.234
32 | ACTAAGAT | 0.151
33 | TGGTAAAA | 0.198
34 | ACTTCTCC | -0.216
35 | ATAGAGGG | -0.102
36 | ATACCTAT | 0.142
37 | CAAGCCTG | -0.0726
38 | GCGTTCAC | 0.0396
39 | ATGTTGCC | -0.155
40 | ACTACAGT | 0.0523
41 | TCATGTAA | 0.26
42 | AGCGGCCC | -0.394
43 | AAATGCGT | 0.3
44 | ATTTGTAC | 0.191

Row | Sequence | PBM E-score
45 | CATAGACA | 0.149
46 | GAGTCTGA | -0.238
47 | CATTCCTC | -0.0246
48 | GAAACCTA | -0.194
49 | AAGATTAA | 0.144
50 | GACCCTTA | -0.106
51 | AAGCTACA | -0.0145
52 | ATGCTTAA | 0.00768
53 | CATCACGC | 0.237
54 | ATTAGGTC | 0.207
55 | AGCACTTA | -0.0248
56 | TAGTACTA | 0.0117
57 | GTTGTTCA | 0.0736
58 | GAATTAAA | 0.0159
59 | ACCGCCGG | -0.364
60 | CTACGTTA | 0.406
61 | GGTCTCAA | -0.182
62 | ATTATTAG | 0.0971
63 | CCCAACAA | -0.00752
64 | AGCATGCT | -0.0729
65 | CGACACAG | -0.0787
66 | CCTAAACC | -0.14

Row | Sequence | PBM E-score
67 | CTAGATCC | -0.244
68 | GTCGTCAC | 0.41
69 | ACGGTGAA | 0.0275
70 | GCCTGTGA | -0.138
71 | CAAACTTA | 0.123
72 | ATTTTGGG | -0.11
73 | CACATACA | 0.0747
74 | CACCACGG | -0.313
75 | AAGCTTAA | -0.0543
76 | GCTCTGCA | -0.271
77 | AACTACCA | 0.0137
78 | GGTCGTCA | 0.38
79 | CTAAACCC | -0.221
80 | CCAGTTTC | -0.246
81 | TTCTCAAA | 0.0993
82 | CACCCAGG | -0.314
83 | TCCAAGAA | -0.0748
84 | CCACGGAG | -0.025
85 | AAGCTAAG | -0.154
86 | CAGGGTCC | -0.285
